Test results reported in the RNAGym collection of RNA variant scans (doi:10.1093/nar/gkz1192).
The source gives no read counts; variants with many changes may rest on few reads.

B1: CPEB3 Ribozyme (parent)
chain: UAACAGGGGGCCACAGCAGAAGCGUUCACGUCGCAGCCCCUGUCAGAUUCUGGUGAAUCUGCGAAUUCUGCUGUAUAUCUC

Variants of: B1
Test: self-cleavage, relative activity (ratio to wild type); higher = more cleavage; in vitro, sequencing
Method in brief: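 Barcoded CPEB3 ribozyme mutants, produced by rounds of error-prone PCR, self-cleaved while being transcribed with T7 RNA polymerase for 5 hours at 37°C and during a subsequent 15 min DNase I step before EDTA was added. Sequencing of template-switched cDNA on Illumina gave cleaved and total reads, and DNA sequencing assigned barcodes to variants. Each variant's relative activity is its cleaved/total read fraction divided by the unmutated ribozyme's fraction, averaged across three batches. A variant needed a minimum of 5 reads.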

| Variant | self-cleavage |
| --- | --- |
| UAACAGGGGGCCACAGCAGGAGCGUUCACGUCGCAGCCCCAGUCAGAUUCUGGUGAAUCUGCGAAUCCUGCUGUAUAUCUC [A20G U41A U67C] | 0.24 |
| UAACAGGGGGCCACAGCAGGAGCGUUCACGUCGCAGCCCCAGUCAGAUUCUGGUGAAUCUGCGAAUUCCGCUGUAUAUCUC [A20G U41A U69C] | 0.1 |
| UAACAGGGGGCCACAGCAGGAGCGUUCACGUCGCAGCCCCCGUCGGAUUCUGGUGAAUCUGCGGAUCCUGCUGUAUAUCUC [A20G U41C A45G A64G U67C] | 0.43 |
| UAACAGGGGGCCACAGCAGGAGCGUUCACGUCGCAGCCCCCGUCGGAUCCUGGUGAAGCUGCGAAUUCUGCUGUAUAACUC [A20G U41C A45G U49C U58G U78A] | 0.04 |
| UAACAGGGGGCCACAGCAGGAGCGUUCACGUCGCAGCCCCCGUCAGGUUCUGGUGAAUCUGCGAAUUCUGCUGUAUAUCUC [A20G U41C A47G] | 0.85 |
| UAACAGGGGGCCACAGCAGGAGCGUUCACGUCGCAGCCCCCGUCAGGUUCUGGUGAAUCUGCGAAAUCUGCUGUAUAUCUC [A20G U41C A47G U66A] | 0.42 |
| UAACAGGGGGCCACAGCAGGAGCGUUCACGUCGCAGCCCCCGUCAGAUUUUGGUGAACCUGCGAAUUCUGCUGUGUAUCUC [A20G U41C C50U U58C A75G] | 0.12 |
| UAACAGGGGGCCACAGCAGGAGCGUUCACGUCGCAGCCCCCGUCAGAUUUUGGUGAAUCUGCGAAUUCUGCUGUAUAACUC [A20G U41C C50U U78A] | 1.15 |
| UAACAGGGGGCCACAGCAGGAGCGUUCACGUCGCAGCCCCCGUCAGAUUCUGGUAAAUCUGCGAAUUCUGCUGUAUAUCUC [A20G U41C G55A] | 0.77 |
| UAACAGGGGGCCACAGCAGGAGCGUUCACGUCGCAGCCCCCGUCAGAAUCUGGUGAAUCUGCGAACUCUGCUGUAUACCCC [A20G U41C U48A U66C U78C U80C] | 0.15 |
| UAACAGGGGGCCACAGCAGGAGCGUUCACGUCGCAGCCCCCGUCAGAUUCAGGUGAAUCUGCGAAUCCUGCAGUAUAUCUC [A20G U41C U51A U67C U72A] | 0.8 |
| UAACAGGGGGCCACAGCAGGAGCGUUCACGUCGCAGCCCCCGUCAGAUUCUGGAGAAUCUGCGGAUUCUGCUGUAUAUCUC [A20G U41C U54A A64G] | 0.31 |
| UAACAGGGGGCCACAGCAGGAGCGUUCACGUCGCAGCCCCCGUCAGAUUCUGGCGAAUCUGCGAGUUCUGCUGUAUAUCCC [A20G U41C U54C A65G U80C] | 0.31 |
| UAACAGGGGGCCACAGCAGGAGCGUUCACGUCGCAGCCCCCGUCAGAUUCUGGUGAACCUGCGAAAUCUGCUGUAUAUCUC [A20G U41C U58C U66A] | 0.46 |
| UAACAGGGGGCCACAGCAGGAGCGUUCACGUCGCAGCCCCCGUCAGAUUCUGGUGAAUCUGCGAAUUCUGCUGUAUACCUC [A20G U41C U78C] | 0.88 |
| UAACAGGGGGCCACAGCAGGAGCGUUCACGUCGCAGCCCCGGUCAGAUUCUGGUGAAUCUGCGAAUUCUGCUGUAUGUCCC [A20G U41G A77G U80C] | 0.22 |
| UAACAGGGGGCCACAGCAGGAGCGUUCACGUCGCAGCCCCGGUCAGACACUGGUGAAUCUGCGUAUUCUGCUGUAUACCUC [A20G U41G U48C U49A A64U U78C] | 0.15 |

| Variant | self-cleavage |
| --- | --- |
| UAACAGGGGGCCACAGCAGGAGCGUUCACGUCGCAGCCCCUGACAGAUUCUGGUGAGUCUGCGAAUUCUGCUGUAAAUCUC [A20G U43A A57G U76A] | 0.97 |
| UAACAGGGGGCCACAGCAGGAGCGUUCACGUCGCAGCCCCUGACAGAUUCUGGUGAAUCUGCGAGUUCUACUGUAUAUCUC [A20G U43A A65G G70A] | 0.16 |
| UAACAGGGGGCCACAGCAGGAGCGUUCACGUCGCAGCCCCUGACAGAUUCUGCUGGAUCCGCGAAUUCUGCUCUAUAUCUC [A20G U43A G53C A56G U60C G73C] | 0.13 |
| UAACAGGGGGCCACAGCAGGAGCGUUCACGUCGCAGCCCCUGACAGAUUCUGCUGAAUCCGCGAAUUCUGCUCUAUAUCUC [A20G U43A G53C U60C G73C] | 0.71 |
| UAACAGGGGGCCACAGCAGGAGCGUUCACGUCGCAGCCCCUGACAGAUUCUGGUGAAUCUGCGAACUCUGCCGUAUAACUC [A20G U43A U66C U72C U78A] | 0.32 |
| UAACAGGGGGCCACAGCAGGAGCGUUCACGUCGCAGCCCCUGCCAGAUUCUGGUGUAUCUGCGGAUUCUGCUGUAUAUCUC [A20G U43C A56U A64G] | 0.17 |
| UAACAGGGGGCCACAGCAGGAGCGUUCACGUCGCAGCCCCUGCCAGAUUCUGGUGAGUCUGCGAGUUCCGCUGUAUAUCUC [A20G U43C A57G A65G U69C] | 0.29 |
| UAACAGGGGGCCACAGCAGGAGCGUUCACGUCGCAGCCCCUGCAAGAUUCAGGUGAAUCUGCGAAUUCUGCUGAAUAUCUC [A20G U43C C44A U51A U74A] | 0.15 |
| UAACAGGGGGCCACAGCAGGAGCGUUCACGUCGCAGCCCCUGCCAUAUUCUGGUGAAUCUGCGAAUUCUGCUGUAUAUCUC [A20G U43C G46U] | 0.2 |
| UAACAGGGGGCCACAGCAGGAGCGUUCACGUCGCAGCCCCUGCCAGAUACUGGUGGAUCUGCGAAUUCUGCUGUAUAUCUC [A20G U43C U49A A56G] | 0.21 |
| UAACAGGGGGCCACAGCAGGAGCGUUCACGUCGCAGCCCCUGCCAGAUACGGGUGAAGCUGCGAAUUCUGCUGUAUAUCCC [A20G U43C U49A U51G U58G U80C] | 0.02 |
| UAACAGGGGGCCACAGCAGGAGCGUUCACGUCGCAGCCCCUGCCAGAUUCAGGUGAAUCUGCGAAUUCUGCUGUAUAUCUC [A20G U43C U51A] | 0.44 |
| UAACAGGGGGCCACAGCAGGAGCGUUCACGUCGCAGCCCCUGCCAGAUUCUGGCGAAUCUGCGAAUUCUGCUGUAUAUCUC [A20G U43C U54C] | 0.19 |
| UAACAGGGGGCCACAGCAGGAGCGUUCACGUCGCAGCCCCUGCCAGAUUCUGGGGAAUCUGCGAAUUCUGCUGUAUAUCAC [A20G U43C U54G U80A] | 0.41 |
| UAACAGGGGGCCACAGCAGGAGCGUUCACGUCGCAGCCCCUGCCAGAUUCUGGUGAAUCAGCGAAUUCUGCUGUAUAUCUC [A20G U43C U60A] | 0.58 |
| UAACAGGGGGCCACAGCAGGAGCGUUCACGUCGCAGCCCCUGCCAGAUUCUGGUGAAUCUGCGAAUACAGCUGUAUAUCUC [A20G U43C U67A U69A] | 0.17 |
| UAACAGGGGGCCACAGCAGGAGCGUUCACGUCGCAGCCCCUGCCAGAUUCUGGUGAAUCUGCGAAUUCUGCAGUAUAUCUC [A20G U43C U72A] | 0.15 |
